Results: PubChem BioAssay AID504466 (National Center for Advancing Translational Sciences (NCATS), 2011)
The campaign covered roughly 330,000 compounds. About 4,200 (1.3%) were called active. The inconclusive results got no clear call from the source; some entries with a clear call stand among them for comparison. The call rests on the fitted dose curve; in most records, active means well fitted activation curve with a large enough effect; inconclusive means small, poorly fitted or top-dose-only effect; inactive means no such curve, though single readings can be large or run the other way. A potency beside an inconclusive call is a rough fit, not a confirmed value.

experiment: qHTS screen for small molecules that induce genotoxicity in human embryonic kidney (HEK293T) cells expressing luciferase-tagged ELG1; conditions: HEK293T ELG1-luciferase reporter, luminescence, 16 h; series mostly up to 46 µM; activity change, positive = activation: at the top concentration; further: nearly all actives have a fitted effect of over 60% in size; on activity change, positive = activation: % of control where 0% means no effect
Procedure, shortened: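 16 hr compound incubation (37 °C, 5% CO2) of HEK293T cells carrying luciferase-tagged ELG1; luciferase then measured by ONE-Glo luminescence after 30 min at RT.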
Potency means the concentration at half of the fitted maximal effect; tags describe the fitted curve by direction and shape.

Structure (SMILES) | Potency | activity change, positive = activation
c1csc(-c2ncc3ccccn23)c1 | inconclusive: 18.4 µM [activator, single point] | 
COc1ccc(CNC(=O)CCS(=O)(=O)c2ccc3c(c2)NC(=O)CS3)cc1 |  | inactive: -0.758%
O=C(/C=C/c1ccc(Cl)cc1Cl)Nc1ccc(CN2CCOCC2)cc1 |  | inactive: 8.64%
CCN(CC)c1ccc(C=N/C(C#N)=C(\N)C#N)cc1 | inconclusive: 10.3 µM [activator, partial curve, poor fit] | 
Cc1cccc(OCC(=O)NNC(=O)CCCCC(=O)NNC(=O)COc2cccc(C)c2)c1 | inconclusive: 29.1 µM [activator, single point] | 
COc1ccc(-c2cn3cc(Cl)ccc3n2)cc1OC | inconclusive: 14.6 µM [activator, partial curve] | 
O=C1N=C(N2CCCC2)S/C1=C\c1cccc(Br)c1 | inconclusive: 20.6 µM [activator, partial curve] | 
CC(C)(C)N(NS(=O)(=O)c1ccc(F)cc1)c1ccccc1 |  | inactive: 0.614%
C/C(=N\NC(=O)c1cccc(N/N=C(\C)c2ccco2)c1)c1ccco1 |  | inactive: 12.1%
CCOc1ccc(C(=O)N2CCc3ccccc32)cc1 | inconclusive: 18.3 µM [activator, partial curve] | 
Cc1cccc(/C(N)=N/OC(=O)c2ccc(F)cc2)c1 | inconclusive: 18.4 µM [activator, partial curve] | 
CC(C)(C)c1ccc(C(=O)N2CCN(C(=O)C3CCCCC3)CC2)cc1 |  | inactive: -13.8%
Cc1ccc(C(=O)Nc2cc3ccccc3oc2=O)cc1 | inconclusive: 0.058 µM [activator, full curve, poor fit] | 
Cc1ccc(C(=O)/C=C\NCc2ccccc2)cc1 |  | inactive: 13.9%
O=C(CCl)N(Cc1ccccc1)c1ccccc1 |  | inactive: 13.7%
CCOC(=O)C1=C(CSc2nc(-c3ccccc3)ccc2C#N)OC(N)=C(C#N)C1c1ccc(OC)cc1 (configuration not stated) | inconclusive: 23.1 µM [activator, partial curve, poor fit] | 
CCOCCc1nnc(NC(=O)c2cccc(F)c2)s1 | inconclusive: 23.1 µM [activator, single point] | 
COc1ccccc1Nc1ncc(C(=O)N2CCC(C(N)=O)CC2)c2ccccc12 |  | inactive: -2.02%
COCCCN=C1NN=C(c2cc(C)n(Cc3ccccc3Cl)c2C)CS1 | inconclusive: 18.3 µM [activator, single point] | 
Cc1cccc(/C(N)=N/OC(=O)COc2ccccc2Cl)c1 | inconclusive: 32.6 µM [activator, partial curve, poor fit] | 
COc1ccc(Cc2nc(C(=O)Nc3ccc(Cl)cc3)cs2)cc1 | inconclusive: 3.16 µM [activator, single point] | 
O=C(Nc1ccccc1)Nc1ccc(-n2ccc(C(F)(F)F)n2)cc1 | inconclusive: 4.61 µM [activator, full curve, poor fit] | 
O=C(Nc1nc2ccccc2s1)c1cccc(S(=O)(=O)N2CCc3ccccc32)c1 |  | inactive: -1.17%
CCOC(=O)c1sc(Nc2nc3c(OC)cccc3s2)nc1C | inconclusive: 6.51 µM [activator, partial curve, poor fit] | 

Structure (SMILES) | Potency | activity change, positive = activation
CCOC(=O)c1ccc(N=c2scc(C)n2CC)cc1 | inconclusive: 8.2 µM [activator, partial curve, poor fit] | 
c1csc(-c2nc(-c3ccncc3)no2)c1 | inconclusive: 8.2 µM [activator, partial curve] | 
Brc1cccc(-c2n[nH]c(-c3ccccc3)n2)c1 | active: 2.31 µM | 
O=C(Nc1nccs1)c1ccccn1 | inconclusive: 13 µM [activator, partial curve] | 
CCOC(=O)c1ccc(N)cc1 | inconclusive: 18.3 µM [activator, partial curve, poor fit] | 
COc1ccc(-n2ncc3c(NCc4cccs4)ncnc32)cc1 | inconclusive: 8.2 µM [activator, partial curve] | 
C/C(=N\OCC(=O)NCC(F)(F)F)c1cc2ccccc2o1 | inconclusive: 32.6 µM [activator, partial curve, poor fit] | 
CCc1nnc2n1N=C(c1ccc(-c3cc(Cl)ccc3Cl)o1)CS2 | inconclusive: 23.1 µM [activator, partial curve, poor fit] | 
COC(=O)c1ccc(OCC(=O)c2ccccc2OC)cc1 |  | inactive: 15%
Cc1ccc(NC(=O)/C=C/c2ccc([N+](=O)[O-])s2)cc1 | inconclusive: 7.31 µM [activator, partial curve] | 
Fc1ccc(-c2nnc(CSc3nnc4ccccn34)o2)cc1 | inconclusive: 16.4 µM [activator, partial curve, poor fit] | 
Nc1nc(-c2ccc3c(c2)CCC(=O)N3)cs1 | inconclusive: 18.3 µM [activator, single point] | 
O=C(Nc1ccccc1)Nc1ncc([N+](=O)[O-])s1 | inconclusive: 0.517 µM [activator, full curve] | 
c1ccc(-n2ncc3c(NCc4cccnc4)ncnc32)cc1 | inconclusive: 8.91 µM [activator, partial curve] | 
COc1ccc(C(=O)NCc2nnc(SCC(=O)Nc3cccc(F)c3)o2)cc1 | inconclusive: 2.06 µM [activator, partial curve, poor fit] | 
C=CCNC(=O)c1ccc(-c2cccc([N+](=O)[O-])c2)o1 | inconclusive: 20.6 µM [activator, partial curve, poor fit] | 
COC(=O)c1ccc(NC(=O)c2ccc(NS(=O)(=O)c3cccc4cccnc34)cc2)cc1 |  | inactive: 4.38%
C=CCOc1c(Cl)cc(CNc2nccs2)cc1OC |  | inactive: -4.63%
CC(C)(C)C(=O)OCc1nc(-c2ccc3c(c2)OCCO3)cs1 | inconclusive: 25.9 µM [activator, single point] | 
CCCCOc1ccc(CN2CCSCC2)cc1 |  | inactive: -0.295%
COc1ccc(NC2=CC(=O)N(C)C2=O)cc1 | inconclusive: 29.1 µM [activator, partial curve, poor fit] | 
CCS(=O)(=O)N1CCCC(C(=O)N2CCc3ccccc3C2)C1 (configuration not stated) |  | inactive: 0.377%
Cc1ccc(NC(=O)c2cnc(SCC(=O)NCC3CCCO3)n(C)c2=O)cc1 (configuration not stated) | active: 20.6 µM | 
